Whole data set: some 33,000 sequences, median “E-score (-0.5 to 0.5)” near -0.035, cut for the highest 2% near 0.35. The list shows a part of the results.
biological target: T1, Pdr3 (UniProt P33200); experiment: PBM E-score (8-mer binding enrichment) (E-score (-0.5 to 0.5)); higher = stronger / more preferred TF binding; most listed sequences are background and not binding sites; conditions: protein concentration: 200 nM; construct: GST-full length
T1 sequence: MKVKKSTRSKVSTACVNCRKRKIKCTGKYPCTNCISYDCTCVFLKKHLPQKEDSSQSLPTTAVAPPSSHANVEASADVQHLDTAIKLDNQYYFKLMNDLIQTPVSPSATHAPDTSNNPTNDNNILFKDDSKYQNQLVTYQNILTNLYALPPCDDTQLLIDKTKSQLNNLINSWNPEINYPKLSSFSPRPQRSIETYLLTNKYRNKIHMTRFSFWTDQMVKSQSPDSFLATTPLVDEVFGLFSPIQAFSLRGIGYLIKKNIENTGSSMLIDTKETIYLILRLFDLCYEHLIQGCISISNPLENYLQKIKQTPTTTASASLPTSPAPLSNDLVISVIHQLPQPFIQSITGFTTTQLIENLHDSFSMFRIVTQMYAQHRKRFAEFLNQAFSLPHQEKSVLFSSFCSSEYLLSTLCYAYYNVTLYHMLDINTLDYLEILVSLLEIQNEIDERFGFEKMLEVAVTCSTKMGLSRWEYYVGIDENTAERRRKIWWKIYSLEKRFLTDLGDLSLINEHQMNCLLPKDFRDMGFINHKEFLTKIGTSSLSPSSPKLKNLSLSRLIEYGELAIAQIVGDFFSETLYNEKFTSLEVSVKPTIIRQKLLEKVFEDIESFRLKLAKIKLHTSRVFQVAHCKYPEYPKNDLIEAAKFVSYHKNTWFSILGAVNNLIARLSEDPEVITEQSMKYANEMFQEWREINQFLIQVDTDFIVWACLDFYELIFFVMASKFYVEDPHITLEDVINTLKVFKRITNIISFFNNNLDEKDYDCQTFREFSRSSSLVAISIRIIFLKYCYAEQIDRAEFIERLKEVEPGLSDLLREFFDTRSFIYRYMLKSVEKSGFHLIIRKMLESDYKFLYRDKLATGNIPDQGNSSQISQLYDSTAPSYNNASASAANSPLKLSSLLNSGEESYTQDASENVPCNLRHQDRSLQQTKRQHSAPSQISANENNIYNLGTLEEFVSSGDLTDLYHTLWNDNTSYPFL
Procedure: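 Universal 'all 10-mer' protein binding microarrays (Agilent AMADID 015681) probed with GST-tagged S. cerevisiae TFs (full-length or DBD) made by in vitro transcription/translation (PURExpress), about 100-200 nM. Bound TF was detected with fluorescent anti-GST. Each ungapped 8-mer (which stands for itself and its reverse complement) is scored by the PBM enrichment score (E-score), a modified Wilcoxon-Mann-Whitney statistic from -0.5 to +0.5, computed with the Universal PBM Analysis Suite. Scale: above 0.35 generally sequence-specific binding.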

Sequence	PBM E-score
CCTCCCCC	-0.23
CATCGAGG	-0.0993
AGTGCCCC	-0.24
GTGCTCAA	0.0359
ACCCACTA	0.146
TAGGGTAA	0.0439
ACGTGAAA	-0.0344
CGCCATTC	0.228
ATCATGAT	0.0245
ACGTCAAG	-0.311
AAGGCACA	-0.143
GGTCATAA	0.00216
CCGTGCAC	0.0846
AAATGCCA	-0.0841
GGCGCGAC	0.246
AGAAAGTA	-0.167
ATCGAGAT	-0.0696
GCACTCCC	-0.0906
CGCCTTGA	-0.0572
TCGGTCAA	-0.0504
CGTCGCTA	-0.0343
AAAGACCG	-0.0526
GAAACTGA	-0.149
CCGACCTA	0.0987
AATTTAGC	-0.00469

Sequence	PBM E-score
CACTACAA	0.0182
ACGCGACG	-0.0337
AAAGTTCT	0.098
ACGGCGAT	0.0347
ACATAAGT	-0.099
GATTAAGC	0.17
AAACTTCA	0.0366
CTCCCCGA	0.053
CAAATCTG	-0.116
CACTATGG	-0.157
CTTTACGC	-0.178
CAATCCAG	-0.098
AGCGTCAT	-0.185
CAAAGCGG	0.0507
AGAGTGTG	-0.227
ACAGTTAG	-0.123
ACACATAG	-0.164
GACTCGTA	-0.249
GAGCCTAA	-0.166
ATAATTCA	0.00953
GAAGGCGC	-0.155
CGTTAACG	0.167
CAAGAACC	-0.0533
TGCCGTAA	-0.187
TCTGACAA	-0.217

Sequence	PBM E-score
CCGTTCCA	0.207
CGCAACTA	0.0897
AGCTATTA	-0.0411
AGAAACCA	-0.0168
GGGGAAAA	0.0506
ATCCTAGC	-0.212
GTTCTACA	-0.312
CGGCTGCA	0.209
CATAGGAC	-0.25
CAGAACGA	-0.147
AGATCGCC	-0.0825
GCTACGTA	-0.0852
ACTTGCAT	-0.00547
ATTGCAGC	0.0135
ACAGCGGG	0.0641
CCCATACA	-0.178
ACCTAAAC	-0.0256
ATGCCTGG	-0.172
ACCCGTGC	0.0845
CAAGATTG	-0.0446
CCTGCAGG	0.0988
CATAGTCA	-0.157
AGAAGAGG	-0.146
ATAACTAC	-0.0673
CACCCCTC	-0.0494

Sequence	PBM E-score
CGAGTCTC	-0.216
CGACCTAA	0.137
GTTTATAA	0.156
CTTTATTC	-0.0926
CCCTGGCC	-0.121
GCCACCGC	0.122
ATCGGTTA	0.112
GAAGAAAA	0.0392
TCGCCAAA	-0.153
ATTTGCTG	-0.0695
CCTCATTA	-0.0236
AATATCAC	0.0412
CAGCGACC	-0.0515
AAGTCAAC	-0.205
AGTTCTCG	0.0419
AAAGGCAT	0.0123
AGCTGAGC	0.0762
CTGCGATC	-0.119
GGAGGCGA	-0.0273
AATCCTTG	0.0606
GAGCCCCC	-0.218
CCTTGCTA	-0.0832
CAAGCGGA	0.299
ACGGCTCT	0.0134
ATCCCCGA	0.303

Sequence	PBM E-score
CAATAAGA	-0.172
ATACTTCA	-0.232
ATCTTAAA	-0.124
CGTCTGAC	-0.077
CTAGTGAG	-0.0557
CTTAACTA	-0.171
ATCTTAAG	-0.188
ATCAGAAA	-0.0967
AACGCCCC	0.179
ATTCTCAG	-0.127
AATAGGGC	-0.119
ACTTTCAT	-0.144
CAGGTGGA	-0.213
TGTAACAA	-0.0769
GCAATAGA	-0.166
AACACGTT	-0.0474
CTCCTTTA	-0.15
AAGAAATA	-0.0975
ATGCTATA	-0.21
ATCACAAC	-0.0179
TCTGCAAA	-0.146
AGCGCCGA	0.109
AGAGCCTA	-0.239
GTACATAC	-0.0511
GAAAAAGC	0.153

Sequence	PBM E-score
ACGAAAAG	-0.0456
CAACTGAC	-0.106
GCTCCACA	-0.188
CGGTGAAA	0.224
AAGAAGAT	0.0216
GGGGCACC	-0.0217
ATACAATG	0.00582
AATGGGAA	-0.205
AACATGGC	-0.108
ATGAGTAA	-0.0184
AGAAAGTG	-0.177
ATTGCATC	-0.0463
CTTTTCCC	-0.106
AAAGTAAA	-0.16
TAAAAGCA	-0.133
AGAATAAT	-0.11
TCTTGGAA	-0.0351
AGGCCACC	0.00968
AGGCTCAC	-0.172
CTTCGGAA	0.438
GACCCCCC	-0.248
ATACTTCG	0.152
AGCATTTC	-0.0981
CACTTAAA	-0.165
AAAGTTGA	-0.0975

Sequence	PBM E-score
CCTCTACA	-0.121
ATGTTTGG	-0.0599
AAGCGCCG	0.28
CCAACAAC	-0.0644
GATCTTGA	-0.0386
GGACGAAA	0.223
GCCATGCC	0.13
GCATTGGA	0.00526
GAAGGGTA	0.0783
ATACTAAT	-0.0439
GTGGGTTA	-0.0589
CATAATAC	-0.164
CAGATATG	0.0599
ATTCTAGC	-0.215
TCAAAGAA	-0.191
AAGCGATG	-0.14
GGAGATTA	0.0129
TGGGCCAA	-0.0919
GAAAACAA	0.0322
CAGGTGGG	0.0371
CAAGATAC	-0.177
ATAAGCAT	-0.169
ATGTATAA	-0.0267
ATGGAAGA	-0.243
AATCCCAC	-0.0475

Sequence	PBM E-score
GCTCCAGA	-0.175
CCCCAGCC	-0.0625
CGTCGCCC	-0.00563
ATGTGGGC	-0.116
CATTACGC	0.0615
CGATAGGA	-0.0249
ACGGACGG	0.245
CACAGCTA	-0.226
AGCGACAC	-0.133
AACTGTCG	-0.133
AATCCTCC	0.121
ACGGCTGA	-0.0133
CCTTCTTC	-0.161
CGGTGATC	0.0157
TGAACGCA	-0.0241
AATCTTCG	0.00208
AGCCGACA	-0.124
CTATCTCC	0.0105
TAAGGATA	-0.00952
ATTATTCA	0.0491
CCTTTATC	-0.126
CTCCCAGC	0.0151
AGACTACG	-0.134
GAGGCTCA	-0.129
GCATACAC	-0.171

Sequence	PBM E-score
AAATATAG	0.0161
CATTTTGA	-0.235
CGACCCCG	0.241
CGCTTAAA	-0.0534
CGTAACGA	-0.171
CGTTCGCA	-0.185
CCGGGTAG	0.354
ACTGCGGC	0.119
CGCACCCC	0.109
TTAGCCAA	-0.0821
TAACAGAA	-0.064
TAAGTGTA	-0.198
GCTGGGAA	0.137
ATCTCTCA	0.137
GAGAGAAC	-0.0782
ACTGGAAT	-0.033
CGCAGGGC	-0.0209
AATGTTAG	-0.154
GCTCCTGA	0.0725

From the supplement of paper PMC3334620
